Our source for the IC50 values is patent publication US11618753B2 (priority 2018, dated 2023).

Structures can show the parent of a compound that is named as a salt.

The test system of the assay is MLKL phosphorylation, HT29-L23 human colorectal adenocarcinoma cells. In words: cells. The conditions noted are these: read-out: pMLKL HCS Cell Assay (IC50, uM).
Turning to `COc1ncc(-c2cc(OC(F)F)c3c(N)ncnn23)cc1C(=O)N[C@@H]1CN(C(=O)[C@@](C)(O)C(F)(F)F)C[C@@H]1F` [Example 1606, 5-[4-amino-5-(difluoromethoxy)pyrrolo[2,1-f][1,2,4]triazin-7-yl]-N-[(3R,4S)-4-fluoro-1-[(2R)-3,3,3-trifluoro-2-hydroxy-2-methylpropanoyl]pyrrolidin-3-yl]-2-methoxypyridine-3-carboxamide], the IC50 was 0.002 µM.

`COc1ncc(-c2cc(C(F)(F)F)c3c(N)ncnn23)cc1C(=O)NC1CN(Cc2nnc(C3CC3)s2)CC1F` (racemic) [Example 207, 5-[4-amino-5-(trifluoromethyl)pyrrolo[2,1-f][1,2,4]triazin-7-yl]-N-{1-[(5-cyclopropyl-1,3,4-thiadiazol-2-yl)methyl]-4-fluoropyrrolidin-3-yl}-2-methoxypyridine-3-carboxamide]: the IC50 is 0.144 µM.

For `COc1ncc(-c2cc(CN3CC(N)C3)c3c(N)ncnn23)cc1C(=O)N[C@@H]1CN(C(=O)C2CC(F)(F)C2)C[C@@H]1F` [Example 497, 5-{4-amino-5-[(3-aminoazetidin-1-yl)methyl]pyrrolo[2,1-f][1,2,4]triazin-7-yl]-N-[(3R,4S)-1-(3,3-difluorocyclobutanecarbonyl)-4-fluoropyrrolidin-3-yl]-2-methoxypyridine-3-carboxamide], the IC50 turned out to be 0.286 µM. The result for `Nc1ncnn2c(-c3cccc(C(=O)N[C@@H]4CN(C(=O)c5ccccc5F)C[C@@H]4F)c3F)cc(C(F)(F)F)c12` [Example 767, 3-[4-amino-5-(trifluoromethyl)pyrrolo[2,1-f][1,2,4]triazin-7-yl]-2-fluoro-N-[(3R,4S)-4-fluoro-1-(2-fluorobenzoyl)pyrrolidin-3-yl]benzamide] reads 0.025 µM; that for `COc1ncc(-c2cc(C(F)(F)F)c3c(N)ncnn23)cc1C(=O)Nc1cnn(CC(F)(F)F)c1` [Example 115, 5-[4-amino-5-(trifluoromethyl)pyrrolo[2,1-f][1,2,4]triazin-7-yl]-2-methoxy-N-[1-(2,2,2-trifluoroethyl)-1H-pyrazol-4-yl]pyridine-3-carboxamide], 0.029 µM; that for `Nc1ncnn2c(-c3ccc(C(F)(F)F)c(C(=O)N[C@@H]4CN(C(=O)C5CCC(F)(F)CC5)C[C@@H]4F)c3)cc(C(F)(F)F)c12` [Example 903, 5-[4-amino-5-(trifluoromethyl)pyrrolo[2,1-f][1,2,4]triazin-7-yl]-N-[(3R,4S)-1-(4,4-difluorocyclohexanecarbonyl)-4-fluoropyrrolidin-3-yl]-2-(trifluoromethyl)benzamide], 0.058 µM. In the case of `C[C@@](O)(C(=O)N1C[C@H](F)[C@H](NC(=O)c2c(F)ccc(-c3cc(C(F)(F)F)c4c(N)ncnn34)c2F)C1)C(F)(F)F` [Example 722, 3-[4-amino-5-(trifluoromethyl)pyrrolo[2,1-f][1,2,4]triazin-7-yl]-2,6-difluoro-N-[(3R,4S)-4-fluoro-1-[(2R)-3,3,3-trifluoro-2-hydroxy-2-methylpropanoyl]pyrrolidin-3-yl]benzamide] it was 0.009 µM.

With `Nc1ncnn2c(-c3cc(C(=O)N[C@@H]4CN(C(=O)c5ccc(F)cc5)C[C@@H]4F)ccc3F)cc(C(F)(F)F)c12` [Example 421, 3-[4-amino-5-(trifluoromethyl)pyrrolo[2,1-f][1,2,4]triazin-7-yl]-4-fluoro-N-[(3R,4S)-4-fluoro-1-(4-fluorobenzoyl)pyrrolidin-3-yl] benzamide, TFA], the IC50 amounted to 0.037 µM.

Regarding `CCC(O)(C(=O)N1C[C@H](F)[C@H](NC(=O)c2cc(-c3cc(CN4CCC(C(F)(F)F)CC4)c4c(N)ncnn34)cnc2OC)C1)C(F)(F)F` (stereo partly drawn) [Example 1629, 5-(4-amino-5-{[4-(trifluoromethyl)piperidin-1-yl]methyl}pyrrolo[2,1-f][1,2,4]triazin-7-yl)-N-[(3R,4S)-4-fluoro-1-[2-hydroxy-2-(trifluoromethyl)butanoyl]pyrrolidin-3-yl]-2-methoxypyridine-3-carboxamide], the IC50 turned out to be 0.0092 µM.

Broadly, the IC50 is the concentration that inhibits the measured activity by half.
